± gives the standard deviation of the averaged measurements. Over roughly 33,000 sequences, “E-score (dimensionless, -0.5 to 0.5)” has its median near -0.049; the highest 2% begin near 0.37. This is one part of the list.
What follows are sequences tested on T1, PmTbr T-box DNA-binding domain (GST fusion) (assay: PBM E-score of 8-mer (E-score (dimensionless, -0.5 to 0.5)); Tbr is Tbrain of the sea star Patiria miniata (Pm) or the sea urchin Strongylocentrotus purpuratus (Sp); higher = stronger binding preference; most listed sequences are background and not binding sites). Settings: the construct has about 5 more residues each side.
T1 sequence: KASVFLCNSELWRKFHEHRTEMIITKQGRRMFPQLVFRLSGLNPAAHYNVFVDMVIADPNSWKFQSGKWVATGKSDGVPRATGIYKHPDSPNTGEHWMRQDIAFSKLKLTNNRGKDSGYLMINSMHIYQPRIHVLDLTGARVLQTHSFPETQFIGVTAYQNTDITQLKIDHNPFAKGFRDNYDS
Procedure, shortened: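 Each ungapped 8-mer received an enrichment E-score from the Universal PBM Analysis Suite, averaged over duplicate arrays. The proteins were Tbr T-box DNA-binding domains, covering the whole T-box plus about five flanking residues, fused to GST and expressed in BL21 E. coli at 20 °C before glutathione affinity purification. Universal Agilent oligonucleotide arrays were made double-stranded by primer extension and incubated with 200 nM protein in PBS (pH 7.5). The arrays were then scanned and quantified, and every 8-mer was scored from probe intensities.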

Sequence | PBM E-score of 8-mer
ACCGGCGA | -0.0452 ± 0.01
ACTGTGAT | 0.152 ± 0.046
CTCTATAA | -0.0289 ± 0.0099
ATAAGCAC | 0.0395 ± 0.011
CATATAGG | 0.0701 ± 0.033
TACTGACA | 0.1838 ± 0.00074
AAACTATC | -0.215 ± 0.063
ACATCATC | -0.0863 ± 0.028
CTGGGTGC | 0.233 ± 0.036
GGCCAATA | -0.184 ± 0.0071
CGATTCCG | -0.116 ± 0.0064
AGCTTACA | 0.0783 ± 0.02
CTCGTAGA | -0.365 ± 0.0046
GGGAGGAA | -0.221 ± 0.0088
TAGCGGCA | 0.0995 ± 0.05
AAACCAGC | 0.0308 ± 0.11
GAAGTGGA | -0.0636 ± 0.031
GACCTCCA | -0.255 ± 0.021
TCCGGCGA | -0.0739 ± 0.05
CCGGACAA | -0.165 ± 0.0012
AACGCGGC | 0.0868 ± 0.026
GGAGTATA | -0.249 ± 0.0022
CGGTCTTC | -0.137 ± 0.033
GTGATCGA | 0.069 ± 0.075
CCCATGAG | -0.096 ± 0.08

Sequence | PBM E-score of 8-mer
ATGAATGA | -0.161 ± 0.024
GGAAAGCC | -0.093 ± 0.0086
ATTGGCCA | -0.109 ± 0.0045
TGGTGCAA | 0.192 ± 0.012
GTCCCTTA | -0.157 ± 0.0061
AACGACGA | 0.0745 ± 0.037
GAGAGCTA | -0.0198 ± 0.011
GAAGATGA | 0.137 ± 0.059
ACCGTACA | -0.208 ± 0.034
GTACGCCA | -0.195 ± 0.077
CTGACTAC | -0.239 ± 0.045
ACTAAACG | -0.21 ± 0.015
CACCGCAC | 0.163 ± 0.024
GCATGGCA | 0.0387 ± 0.0061
ACGGGTAA | -0.0408 ± 0.072
CAGCTTGG | 0.0903 ± 0.044
GCGAAACC | 0.275 ± 0.015
AAAGGAAC | -0.149 ± 0.013
GCGCCCAA | 0.077 ± 0.035
TCTATAGA | -0.46 ± 0.026
CTAACCTC | -0.131 ± 0.013
GAGGCCCC | -0.308 ± 0.018
AGGCCCAT | -0.274 ± 0.028
CCGAGAGC | -0.139 ± 0.047
ATTAGCAA | 0.12 ± 0.092

Sequence | PBM E-score of 8-mer
AAAGGTTA | -0.0814 ± 0.057
ACCGCCGC | -0.0961 ± 0.12
ACCGCGTC | 0.134 ± 0.016
TATCGTAA | -0.0592 ± 0.061
GGTGATAC | 0.364 ± 0.025
AAAAGCAG | 0.11 ± 0.04
ACACGTGC | 0.387 ± 0.023
ATAAGGAC | -0.231 ± 0.0087
CAACGGTA | -0.113 ± 0.034
ACGGGAGC | -0.116 ± 0.046
CACAGCAG | -0.0101 ± 0.077
TAGGTCCA | -0.117 ± 0.02
CCAGATGA | -0.279 ± 0.085
AATACGTA | -0.145 ± 0.081
TATCTTAA | -0.157 ± 0.024
ATTATCAC | 0.38 ± 0.053
CATGAACG | -0.129 ± 0.012
AGTCTCAC | 0.3582 ± 0.00078
GGGGGCGA | 0.01664 ± 0.00016
CCCAAGCC | -0.228 ± 0.037
AATCGATT | -0.196 ± 0.057
CAGCCACA | 0.0349 ± 0.1
CTGGCACC | 0.411 ± 0.018
CTGCGTAC | -0.0912 ± 0.038
GTGTGTAA | 0.214 ± 0.022

Sequence | PBM E-score of 8-mer
AGAACCAC | -0.13 ± 0.026
ACGATCGT | -0.0411 ± 0.0035
CCTCTTGA | -0.0739 ± 0.028
GGCCTGTA | -0.335 ± 0.069
GTGGGGAA | 0.253 ± 0.034
AAGGCCAT | -0.225 ± 0.0052
CTGCGCAC | 0.159 ± 0.038
GCCGGTCA | 0.158 ± 0.0024
GGTGTTAA | 0.479 ± 0.0049
GCGAAACA | 0.202 ± 0.076
ACCATTGC | -0.085 ± 0.019
CGAGTTAC | -0.0449 ± 0.031
AGAGGTTC | -0.124 ± 0.022
CTCAATTC | -0.148 ± 0.035
CTCACGAG | 0.09 ± 0.075
ATCATGCA | -0.319 ± 0.006
CCGAATAC | -0.127 ± 0.047
AAATAATG | -0.0889 ± 0.014
GGACGAAC | -0.182 ± 0.031
GCTAAGCA | -0.0475 ± 0.039
ATATGGTA | -0.257 ± 0.065
AACGTAGT | -0.232 ± 0.055
CACATTGA | 0.196 ± 0.045
CGTTGTAA | 0.0165 ± 0.029
ACCCTGGC | 0.142 ± 0.011

Sequence | PBM E-score of 8-mer
GTAAGATA | -0.0523 ± 0.029
TATCAAAA | -0.104 ± 0.051
GATCACAA | 0.163 ± 0.045
ATATACAA | -0.14 ± 0.008
ACTACATC | 0.0509 ± 0.015
CTCGTCAC | 0.3943 ± 0.0029
GAAACGGC | -0.086 ± 0.049
CAACTTTA | 0.115 ± 0.034
GCCCGAGA | -0.0545 ± 0.033
CCAAGCAC | -0.158 ± 0.02
TAGGTTAA | -0.216 ± 0.0052
CAACCGCC | -0.0203 ± 0.051
CGGTTCCC | -0.22 ± 0.012
CTCCAGAC | -0.0277 ± 0.017
GGGACAAA | -0.181 ± 0.045
CTTATGTC | -0.22 ± 0.015
TCCGTTAA | -0.118 ± 0.023
AAGCGCTT | 0.0229 ± 0.02
CCGTATAC | -0.0953 ± 0.0049
CCGAGACA | -0.0936 ± 0.0089
ATCCGGTG | -0.0929 ± 0.065
CATGGCCC | -0.201 ± 0.0055
ACTATTCA | -0.08168 ± 9.9e-05
CTATAGCC | -0.148 ± 0.008
CGGTGCAC | -0.108 ± 0.037

Sequence | PBM E-score of 8-mer
CCGAAGGA | -0.248 ± 0.077
AGAGCTAC | -0.216 ± 0.015
ATTCAGAA | -0.313 ± 0.0071
CGGCACTC | 0.0465 ± 0.024
CACGATCC | 0.0308 ± 0.062
AGGGGCCC | -0.303 ± 0.0065
GCACAAGC | -0.0674 ± 0.032
CTAATTAG | 0.0707 ± 0.025
TGATAGCA | 0.267 ± 0.0091
CTGTCCGC | -0.212 ± 0.067
AAATGATA | -0.0199 ± 0.014
ATGTAAAT | -0.0522 ± 0.032
GACAACCC | 0.117 ± 0.054
GACTTTCA | 0.0599 ± 0.042
AGCGGATG | -0.173 ± 0.035
ATACACGG | -0.128 ± 0.016
CGCATACG | -0.0175 ± 0.005
CCTTAAGG | -0.124 ± 0.0032
GGGTTGAA | -0.0332 ± 0.073
ATCAGTCC | -0.155 ± 0.078
ACCTGCGT | 0.112 ± 0.063
CGCTAGGA | 0.17 ± 0.031
GATGGGGA | 0.0198 ± 0.033
GAAGTAGC | 0.0968 ± 0.071
AACCACAT | -0.231 ± 0.022

Sequence | PBM E-score of 8-mer
GTGGCCAA | 0.018 ± 0.065
GGCCTTTA | -0.228 ± 0.024
CAAAGCCG | 0.0505 ± 0.036
GGGAATCA | -0.0147 ± 0.043
TAAAGGCA | -0.254 ± 0.031
ACAAAAGT | 0.0953 ± 0.078
AAGGGACG | -0.16 ± 0.015
CGAGTAGA | -0.208 ± 0.0038
ACAAAATC | 0.0755 ± 0.12
ACTTGATG | 0.0241 ± 0.018
GCACATAA | 0.236 ± 0.024
CAGCGCCG | 0.11 ± 0.041
CCCCTTCG | -0.126 ± 0.029
CGGAGAAA | 0.0604 ± 0.023
CAGCAGAC | 0.0235 ± 0.024
CCAGGTAC | -0.105 ± 0.1
AACCTGCC | -0.0169 ± 0.035
ACGTATCA | 0.00869 ± 0.048
CCGTGTCC | -0.0796 ± 0.014
AACTAATA | -0.0828 ± 0.024
CCAGGTAA | -0.00588 ± 0.029
TAGAGTAA | -0.0497 ± 0.032
